Measurements reported in PubChem BioAssay AID1645886 (National Center for Advancing Translational Sciences (NCATS), 2021).
Where “and” joins values, the source holds several entries; their conditions need not be identical. Identical values can stand only once. Among all 16,000 compounds or so, about 260 (1.6%) were called active. Inconclusive means that the source gave no clear call. Such entries were picked first, then a sample of the others. Calls follow the shape of the dose curve; as a rule, active = well fitted inhibition curve with a large enough effect; inconclusive = small, poorly fitted or top-dose-only effect; inactive = no such curve, though single readings can be large or run the other way. Potencies beside an inconclusive call are fits to weak or partial responses and may not hold up. Some structures have more than one record in an assay (separate samples or runs), and their calls can disagree.
Also: nearly all actives have a fitted effect of over 40% in size.
Potency is read from the fitted curve at half-maximal effect; tags tell the direction and shape of the fitted curve.

What follows are compounds tested against Rap guanine nucleotide exchange factor 4 (Homo sapiens) (UniProt Q8WZA2) (assay: Validation qHTS for antagonist of cAMP-regulated guanine nucleotide exchange factor 4 (EPAC2)). Settings: EPAC2 Rap1B BODIPY-GDP exchange, fluorescence; activity, negative = inhibition: at 112 µM (top of the series).
Sequence of UniProt Q8WZA2 (Q8WZA2 whole entry, looked up): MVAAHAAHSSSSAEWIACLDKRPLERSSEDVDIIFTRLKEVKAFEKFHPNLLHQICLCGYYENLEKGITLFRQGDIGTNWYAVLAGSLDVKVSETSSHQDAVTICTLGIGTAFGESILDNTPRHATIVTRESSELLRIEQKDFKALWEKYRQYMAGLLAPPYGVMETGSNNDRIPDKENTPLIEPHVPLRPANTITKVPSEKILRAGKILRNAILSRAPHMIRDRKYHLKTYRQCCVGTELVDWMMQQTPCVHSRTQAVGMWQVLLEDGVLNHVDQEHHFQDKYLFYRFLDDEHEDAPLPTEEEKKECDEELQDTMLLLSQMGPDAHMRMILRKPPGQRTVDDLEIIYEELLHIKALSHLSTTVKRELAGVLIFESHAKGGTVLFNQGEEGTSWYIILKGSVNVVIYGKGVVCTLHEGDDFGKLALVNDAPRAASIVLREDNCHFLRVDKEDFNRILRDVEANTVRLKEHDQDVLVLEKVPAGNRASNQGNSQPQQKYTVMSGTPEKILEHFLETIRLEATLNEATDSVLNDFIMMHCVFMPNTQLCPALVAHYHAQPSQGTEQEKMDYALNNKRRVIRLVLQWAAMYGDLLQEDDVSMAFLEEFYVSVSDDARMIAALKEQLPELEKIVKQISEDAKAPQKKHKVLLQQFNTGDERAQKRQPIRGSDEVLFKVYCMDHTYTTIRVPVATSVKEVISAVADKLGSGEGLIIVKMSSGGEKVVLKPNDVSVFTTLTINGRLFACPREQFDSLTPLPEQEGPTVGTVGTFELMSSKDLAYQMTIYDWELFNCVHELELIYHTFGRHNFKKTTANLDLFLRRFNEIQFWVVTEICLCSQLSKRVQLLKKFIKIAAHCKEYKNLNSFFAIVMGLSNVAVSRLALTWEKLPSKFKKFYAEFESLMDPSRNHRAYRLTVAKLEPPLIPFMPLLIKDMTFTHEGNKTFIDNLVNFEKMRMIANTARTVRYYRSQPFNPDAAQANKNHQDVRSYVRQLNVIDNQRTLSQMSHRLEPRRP
Text: Principle Investigator: Xiaodong Cheng Ph.D. The University of Texas Medical Branch, […], TX MLPCN Grant: NS066510 In multi-cellular eukaryotic organisms, the effects of cAMP are transduced by two ubiquitously-expressed intracellular cAMP receptors, the classic protein kinase A/cAMP-dependent protein kinase (PKA/cAPK) and the more recently discovered exchange protein directly activated by cAMP/cAMP-regulated guanine nucleotide exchange factor (EPAC/cAMP-GEF). Both PKA and EPAC are ubiquitously expressed in all tissues, and an increase in intracellular cAMP levels will lead to the activation of both PKA and EPAC. Therefore, careful dissections of the individual role and relative contribution of EPAC and PKA within the overall cAMP signaling in various model systems are critical for further elucidating the mechanism of cAMP signaling. To date no EPAC-specific antagonists and agonist, as well as isoform-specific agonists have been reported, and developing EPAC-specific pharmacological probes to determine the physiological functions that EPAC play in the overall cAMP-mediated signaling remains a major challenge within the research field. Furthermore, identified regulators of EPAC may lead to new mechanism-based therapeutic strategies specifically targeting the EPAC / cAMP-signaling components as EPAC has been implicated to play important roles in major human pathological conditions such as diabetes, heart disease, and cancer. This qHTS will be used to screen the Molecular Libraries Small Molecule Repository (MLSMR) as a concentration-titration series using the NCGC unique quantitative screening (qHTS) platform to find activators for EPAC1. In addition, this assay will also be used as a counterscreen for the EPAC2 qHTS. This fluorescent based assay is developed and validated for EPAC1 that measures exchange using EPAC effector Rap1 complex with BODIPY-GDP, a GDP analog with a tethered fluorophores. Activators are identified by monitoring the change in fluorescence signal as the exchanged free BODIPY-GDP has a reduced fluorescence compared to Rap1-bound BODIPY-GDP. Increase in signal (activation) is the desired outcome for the EPAC1 agonist while no activity in this assay is desired for the EPAC2 agonist counterscreen. Reference: [1] de Rooij, J., Zwartkruis, F. J., Verheijen, M. H., Cool, R. H., Nijman, S. M., Wittinghofer, A., and Bos, J.L. (1998) Nature 396, 474-477.
Briefly, three uL of reagents (100 nM EPAC2, 250 nM RAP1B-BODIPY-GDP, 50 uM GDP) were dispensed into a 1536-well Greiner black solid-bottom medium binding assay plate. Controls and test compounds (23 nL) were transferred to the plate via a Kalypsys pin tool equipped with a 1536-pin array. The plates were centrifuged at 1,000 rpm for 15 seconds followed by 5 minute incubation at room temperature. The assay plates were read at 5 minute intervals for 30 minutes in the ViewLux plate reader using 480nm excitation and 540nm emission filters. The results were normalized to the agonist positive control of 6.5 mM cAMP.
For `COc1c(-c2coc3cc4c(cc3c2=O)CC(OC(C)=O)C(C)(C)O4)ccc2c1C=CC(C)(C)O2` (stereo unspecified), the Potency was inconclusive: 3.16 µM [inhibitor, full curve].
`O=C(NCCN1Cc2ccccc2OC(c2ccsc2)C1)c1ccc2[nH]ccc2c1` (stereo unspecified) was tested, and the “activity, negative = inhibition” value was inactive: -10.9%.
`COC(=O)[C@@H](c1ccccc1Cl)N1CCc2sccc2C1` was tested, and the Potency was inconclusive: 31.6 µM [inhibitor, partial curve].
For `Cc1ccccc1-c1cncnc1NCc1cccs1`, the Potency was inconclusive: 79.4 µM [inhibitor, partial curve, poor fit].
`COc1ccccc1CNc1ncncc1-c1ccccc1C` was tested, and the Potency was inconclusive: 63.1 µM [inhibitor, partial curve, poor fit].
In the case of `CN[C@@H]1[C@@H](O)[C@@H](O[C@@H]2[C@@H](O)[C@H](OC3OC(CN)=CCC3N)[C@@H](N)C[C@H]2N)OC[C@]1(C)O` (stereo partly specified), the Potency is reported as inconclusive: 1.41 µM [inhibitor, partial curve].
With `OC[C@H]1O[C@@H](n2cnc3c2NC=NC[C@H]3O)C[C@@H]1O` the “activity, negative = inhibition” value was inactive: 9.89%.
`CC[N+](C)(C)Cc1ccccc1Br` was tested, and the Potency was inconclusive: 0.282 µM [inhibitor, full curve, poor fit].
For `CCCCCC[C@@H]([C@@H](C)O)n1cnc2c(N)ncnc21`, the Potency was inconclusive: 79.4 µM [inhibitor, partial curve].
In the case of `CCOC(=O)C[C@H]1c2ccc(C(F)(F)F)cc2S(=O)(=O)N1Cc1ccccc1`, the Potency is reported as inconclusive: 31.6 µM [inhibitor, partial curve, poor fit].
With `CC(C)c1nc(C(=O)N2CCOc3ccc(CN4CCN(c5ccccn5)CC4)cc3C2)cs1` the “activity, negative = inhibition” value was inactive: -21.6%.
In the case of `Cc1oncc1C(=O)Nc1ccc(C(F)(F)F)cc1`, the Potency is reported as inconclusive: 6.31 µM [inhibitor, partial curve, poor fit].
For `COc1ccc(C(Cl)=C(c2ccc(OC)cc2)c2ccc(OC)cc2)cc1`, the Potency was active: 3.16 µM and inconclusive: 3.16 µM [inhibitor, full curve].
With `O=S1(=O)CCOC[C@H](CC2CCCCC2)N1Cc1cccc(C(F)(F)F)c1` the Potency was active: 17.8 µM.
With `COc1ccc(C(=O)N2CCC[C@@]3(CCN(Cc4cc(C(F)(F)F)cc(C(F)(F)F)c4)C3)C2)cc1` the Potency was active: 14.1 µM.
`CC1CC(OC(=O)C(O)c2ccccc2)CC(C)(C)C1` (stereo unspecified) was tested, and the Potency was inconclusive: 50.1 µM [inhibitor, partial curve].
With `Cc1cc2c(c(-c3ccc4nc(C)ccc4c3)c1)OC(CNC(=O)Cc1ccn(C)c1)C2` (stereo unspecified) the Potency was inconclusive: 70.8 µM [inhibitor, partial curve, poor fit].
For `Cc1cc(C(C)(C)C)c(O)c(C)c1CC1=NCCN1`, the Potency was inconclusive: 22.4 µM [inhibitor, partial curve, poor fit].
With `NC(Cc1ccc(Cl)cc1)C(=O)O` (stereo unspecified) the Potency was inconclusive: 25.1 µM [inhibitor, partial curve].
For `COc1ccc(CNC(=O)[C@@H]2CC=C[C@@H]3CCN(Cc4ccc(Cl)c(Cl)c4)C(=O)[C@@H]32)cc1`, the Potency was inconclusive: 35.5 µM [inhibitor, partial curve, poor fit].
`C=CC(C1=CC(=O)C=CC1=O)c1ccccc1` (stereo unspecified) was tested, and the Potency was inconclusive: 11.2 µM [inhibitor, partial curve].
For `CN1CCC(=O)N([C@H](CSc2ccccc2)c2ccccc2)CC1`, the Potency was inconclusive: 2.51 µM [inhibitor, partial curve, poor fit].
With `O=c1c(-c2ccccc2)nc2cnc(Nc3ccccc3)nc2n1Cc1cccs1` the “activity, negative = inhibition” value was inactive: 11%.
`COc1c2ccoc2c(OC)c2oc(=O)ccc12` was tested, and the Potency was inconclusive: 100 µM [inhibitor, partial curve, poor fit].
For `CNc1ccc(/C=C/c2ccccc2)cc1`, the Potency was inconclusive: 70.8 µM [inhibitor, partial curve, poor fit].
With `O=c1c(-c2cccc(F)c2)nc2cncnc2n1C1CC1` the Potency was inconclusive: 28.2 µM [inhibitor, full curve, poor fit].
`O=C(O)c1cc(N=Nc2ccc(O)c(C(=O)O)c2)ccc1O` was tested, and the Potency was inconclusive: 31.6 µM [inhibitor, partial curve].
With `COc1cc(-c2noc(C)c2-c2ccc3[nH]ccc3c2)cc(OC)c1OC` the Potency was active: 79.4 µM.
For `Cn1cccc1C(=O)N1CCC2(CC1)CN(C(c1ccccc1)c1ccccc1)C2`, the Potency was inconclusive: 28.2 µM [inhibitor, full curve, poor fit].
In the case of `CC(N)=NCCCC[C@H](N)C(=O)O`, the Potency is reported as inconclusive: 56.2 µM [inhibitor, partial curve].
In the case of `CCN(Cc1ccncc1)Cc1ccc2c(c1)CN(C(=O)c1ccc(C)cc1)CCO2`, the “activity, negative = inhibition” value is reported as inactive: -6.63%.
With `CN(C)c1ncc2nc(-c3ccccc3)c(=O)n(C3CC3)c2n1` the Potency was inconclusive: 79.4 µM [inhibitor, single point].
For `COc1ccc2c(c1OC)C(Cc1ccccc1)N1CCc3cc4c(cc3C1C2)OCO4` (stereo unspecified), the Potency was inconclusive: 44.7 µM [inhibitor, partial curve].
For `Cn1cnnc1Sc1ccc(CN2CCOc3ccc(C4=Cc5ccccc5CC4)cc3C2)o1`, the Potency was inconclusive: 39.8 µM [inhibitor, partial curve, poor fit].
With `COc1ccccc1N1CCN(CCn2c(=O)c3c(c4ccccc4n3C)n(C)c2=O)CC1` the activity, negative = inhibition was inconclusive: -31.8% [inhibitor].
For `Cc1ccc(O)c(N=Nc2ccccc2)n1`, the Potency was active: 56.2 µM and inconclusive: 79.4 µM [inhibitor, partial curve].
For `C[C@H]1CCC(=O)N(CCSc2ccc(Br)cc2)CC1`, the Potency was inconclusive: 8.91 µM [inhibitor, partial curve, poor fit].
In the case of `O=C(O[C@H]1[C@H](Cc2ccccc2)NS(=O)(=O)[C@H]2C[C@@H]3C=C[C@]12O3)c1ccccc1Br`, the Potency is reported as inconclusive: 22.4 µM [inhibitor, partial curve, poor fit].
With `O=C1CCC[C@@H]2CC(N(Cc3cc4ccccc4s3)c3ccccc3)C[C@@H]3CCN1[C@H]23` (stereo partly specified) the “activity, negative = inhibition” value was inactive: -4.44%.
In the case of `CCOC(=O)C[C@H]1c2ccc(C(F)(F)F)cc2S(=O)(=O)N1C(C)C`, the Potency is reported as inconclusive: 50.1 µM [inhibitor, partial curve, poor fit].
`C=C[C@](C)(O)CCC1C(=C)CC(O)C2C(C)(C)CCCC12C` (stereo partly specified) was tested, and the Potency was inconclusive: 35.5 µM [inhibitor, partial curve].
For `CCCCNC(=O)c1sc2ncnc(NCC3CCCO3)c2c1C` (stereo unspecified), the Potency was inconclusive: 100 µM [inhibitor, single point].
For `C=CC[n+]1cccc2cc(Br)ccc21`, the Potency was inconclusive: 89.1 µM [inhibitor, single point].
`COc1cccc(-c2cncnc2NCc2ccc(OC)cc2OC)c1` was tested, and the Potency was active: 44.7 µM.
For `O=c1c(-c2cccs2)nc2cnc(Oc3ccccc3)nc2n1-c1ccccc1`, the Potency was inconclusive: 1 µM [inhibitor, full curve, poor fit].
`O=c1cnc2cnc(Oc3ccccc3)nc2n1CCc1ccccc1` was tested, and the Potency was inconclusive: 89.1 µM [inhibitor, single point].
For `CCCCCCCCN1[C@@H](CC(=O)OC)c2cc(C(F)(F)F)ccc2S1(=O)=O`, the Potency was inconclusive: 39.8 µM [inhibitor, partial curve, poor fit].
In the case of `CC1(C)CCC(=O)N2CC[C@H]3C[C@H](OC(=O)Nc4ccccc4)C[C@@H]1[C@H]32`, the Potency is reported as inconclusive: 39.8 µM [inhibitor, partial curve, poor fit].
With `O=S1(=O)CCOC[C@H](c2ccccc2)N1Cc1cccc(Cl)c1` the Potency was inconclusive: 22.4 µM [inhibitor, partial curve].
In the case of `O=[N+]([O-])c1ccc(-c2nc(-c3ccc(F)cc3)c(-c3ccncc3)[nH]2)cc1`, the Potency is reported as inconclusive: 56.2 µM [inhibitor, partial curve, poor fit].
In the case of `CO/N=C(\C(=O)N[C@@H]1C(=O)N2C(C(=O)OCOC(=O)C(C)(C)C)=C(/C=C\c3scnc3C)CS[C@H]12)c1csc(N)n1`, the Potency is reported as inconclusive: 14.1 µM [inhibitor, partial curve, poor fit].
In the case of `CCCN[C@@H]1C(=O)N2C(C(=O)OCCC)=C(C)CS[C@H]12`, the Potency is reported as inconclusive: 89.1 µM [inhibitor, partial curve].
`COc1ccc(OC)c2c(=S)c3ccccc3[nH]c12` was tested, and the Potency was inconclusive: 50.1 µM [inhibitor, partial curve, poor fit].
For `COc1ccc(CN2CCOc3ccc(CN4CCC(Oc5cccnc5)CC4)cc3C2)c(F)c1`, the “activity, negative = inhibition” value was inactive: 3.23%.
`CN(C)c1ccc(/C=C/c2cc(N(C)C)nc3ccccc23)cc1` was tested, and the Potency was inconclusive: 56.2 µM [inhibitor, partial curve, poor fit].
In the case of `c1ccc2c(Cc3c[nH]c4ccccc34)c[nH]c2c1`, the Potency is reported as inconclusive: 10 µM [inhibitor, partial curve, poor fit].
In the case of `CN=C1N[C@H](c2ccccc2)N(c2ccccc2)S1`, the Potency is reported as inconclusive: 89.1 µM [inhibitor, partial curve, poor fit].
For `CC1=C(CC(=O)O)c2cc(F)ccc2/C1=C\c1ccc(S(C)=O)cc1` (stereo unspecified), the activity, negative = inhibition was inconclusive: -30.2% [inhibitor].
In the case of `CN1CCCC2(CCN(C(=O)c3cc(C(F)(F)F)cc(C(F)(F)F)c3)CC2)C1`, the Potency is reported as inconclusive: 89.1 µM [inhibitor, single point].
`O=c1cnc2cnc(OCc3ccccc3)nc2n1CCc1ccccc1` was tested, and the Potency was active: 22.4 µM.
With `COc1cc(-c2noc(C)c2C#CC2(O)CCCCC2)cc(OC)c1OC` the Potency was inconclusive: 25.1 µM [inhibitor, full curve].
